Source: the supplement of paper PMC11417369
± gives the standard deviation of the averaged measurements. The list shows a part of the results.

test system: PfAP2-I AP2 domain 3 (GST-tagged); assay: gcPBM binding intensity (ln(normalized median fluorescence intensity)); higher = stronger DNA binding
Procedure, shortened: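 GST-tagged P. falciparum DNA-binding domains produced in E. coli were incubated for 1 h on an Agilent 4 × 180k array of primer-extended double-stranded 36-bp intergenic genomic probes with negative controls. Binding intensity is the highest Masliner-normalised natural-log median intensity across replicate spots of either probe orientation, with bound protein detected by Alexa488 anti-GST antibody at 488 nm.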

Sequence	gcPBM binding intensity (ln)
CATTCAAAGAAAAACTGTACGTGTAGCAAACGTCAT [XGTACX_site2576]	7.76 ± 0.71
ATATCAATATAAAGTACACACTATAGTATGTATTAT [CACACA_site5286]	7.75 ± 0.38
ATTATTAATAATTGTGTGCACAAATATTTATATGCT	10.815 ± 0.007
ATATTGTATTATCTTTATGTACCAAAAAAAAAAAAA [CACACA_negctrl_site1036]	8.15 ± 0.68
ATTATCCATCAAAAGGTGCAAATTTTTAATTATAAA [GTGCAC_site9932]	10.5 ± 0.49
AAAGATGATAAAATATGTACACACAGTTTATACATT [XGTACX_site8703]	7.67 ± 0.33
TGAGTCTTTTACATTGCACACACATTTCTTTCCTTT [CACACA_site8978]	8.87 ± 0.51
TATATATATATATGTAGTACTTTACAAAATAATTCG [XGTACX_site5322]	9.47 ± 0.42
AATAAATTCATGATAGTGCAAAAATTATTTTTGTTA	9.49 ± 0.028
GCATAACCTTTATATTGTACATATACCTTTATTGTT [XGTACX_site6046]	8.33 ± 0.88
TTATTTATACGCTATGAGTTTGATACAAACAATTAA [XGTACX_negctrl_site456]	7.78 ± 0.39
TTTTTACGGAATTAGAGAAAAGAAATAAAAAAAAAA [XGTACX_negctrl_site436]	7.89 ± 0.76
TTTATATTTATGTAGGTGCATTTGTTTACAACATAT [GTGCAC_site9511]	10.8 ± 0.71
TAGTTATCACATTGCACACACATTTCCTTTTACATT [CACACA_site7589]	9.03 ± 0.18
TTTTTTGTTATTTTCCGTTTTTTTCCATTATAATTT [GTGCAC_negctrl_site461]	8.19 ± 0.49
TATTCAAAGAAAAACTGTACGTGTAGCCTACATCCT [XGTACX_site7707]	8.62 ± 1.1
ACGTTAAAAACAAGTTGTACACAATAAATTATTCTT [XGTACX_site6321]	8.19 ± 0.16
ATCTATTCACACTTTTAAAAATTAAATATATTATAT [TGCATGCA_negctrl_site610]	8.35 ± 0.42
TAATTTTTTTTTTATAGTACACATATTAAAGAATTA [XGTACX_site2485]	7.87 ± 0.3
AATAAAAAAAAAATATATATTTTTTTTTTTTTTTTT [CACACA_negctrl_site54]	8.86 ± 0.47
ATATATATAAACAAAAGTACATATATAAATTCATTT [XGTACX_site3482]	8.31 ± 0.54
TTAAAGTTACATTCGACACACACATAACAACTAAAT [CACACA_site9130]	7.9 ± 0.51

Sequence	gcPBM binding intensity (ln)
TCTTATATTATATTGTGTATTAAAATTTAACTTCAA [TGCATGCA_negctrl_site565]	7.83 ± 0.58
ATATATGTATATATGTACATGAATATATAAAGAAAA [CACACA_negctrl_site315]	7.99 ± 0.58
GTTTATATTTAATTTTTTTGTTTTTTTGTGTAATTC [XGTACX_negctrl_site194]	7.55 ± 0.89
TATTTATACTAATATGCATGTAATCGAAATACAGCT [TGCATGCA_site457]	7.63 ± 0.49
ACAAATAAATAAATATGTACTTAATTATATAATTGA [XGTACX_site5626]	7.57 ± 0.37
GACCATGTTAACAAAGCATGCATCTCTATATGTTTA [TGCATGCA_site358]	7.74 ± 0.84
TTATTTTATAAATCGAAAACAAACAAAAAAAAGATA [XGTACX_negctrl_site178]	7.92 ± 0.52
TTGCTGTATTTATTTTGTACACATTTGGCATTATAT [XGTACX_site3408]	8.36 ± 0.54
AAAAAAAAAAGAAAGAGTACTTTTTCAATACATATA [XGTACX_site2468]	7.45 ± 0.29
AAGAAAAACAATACGTGTACCAAGCATCCTACTAAC [XGTACX_site6628]	7.86 ± 0.56
ACATAAAATAAATATACACACATATGTATATATCAT [CACACA_site7424]	7.62 ± 0.47
TTTGTAGCACTTAAGAGTACAAAATGTATAAGATTT [XGTACX_site2321]	8.15 ± 0.13
TTAATATAATTAAAATGTACTTATTTGTAAACATTA [XGTACX_site6313]	7.43 ± 0.36
GAGGATCATCAATTCACACACATAAAAATGAAGTTA [CACACA_site3078]	7.42 ± 0.64
CAACGATACAAAAAAGGTACACATATATATATATAT [XGTACX_site8688]	9.32 ± 0.085
TATATAAAATTCTATTGTACATGTTATACGAAAGAA [XGTACX_site5711]	7.88 ± 0.32
CAATTTTCTAATGAAACATGCAAAATAAAATTTTAT [TGCATGCA_site13]	7.7 ± 0.82
TTCTTTTTAATGTCGGTGCAACTCCATAAAAACAAA [GTGCAC_site9488]	9.2 ± 0.22
CAAATACATAGACACACACACATATACATATTTATA [CACACA_site7610]	7.79 ± 0.49
TTTATATTTAAATGCATGCACTTTCTATTTTTTTTT [GTGCAC_site9959]	8.47 ± 0.54
GAATAAAGGAGAGGCACACATATATATATATATATA [CACACA_site2452]	9.34 ± 0.73
TATTTGATAAATTATACACACACAATATATATAAAA [CACACA_site8625]	7.69 ± 0.52
